Measured values as given in PubChem BioAssay AID1460 (National Center for Advancing Translational Sciences (NCATS), 2008).
The campaign covered roughly 270,000 compounds. About 5,800 (2.1%) were called active. Inconclusive results, whose numbers are uncertain, are shown with a selection of clear calls. The call rests on the fitted dose curve; in most records, active means well fitted inhibition curve with a large enough effect; inconclusive means small, poorly fitted or top-dose-only effect; inactive means flat fitted curve, though single readings scatter. A potency beside an inconclusive call is a rough fit, not a confirmed value.
Further: nearly all actives have a fitted effect of over 55% in size.
Potency means the concentration at half of the fitted maximal effect; tags describe the fitted curve by direction and shape.

These compounds were tested against Microtubule-associated protein tau (Homo sapiens) (UniProt P10636) (assay: qHTS for Inhibitors of Tau Fibril Formation, Thioflavin T Binding). Settings: recombinant tau K18 P301L, heparin-induced fibrillization, ThT fluorescence; series mostly up to 57.4 µM.
Sequence of UniProt P10636 (P10636 whole entry, looked up): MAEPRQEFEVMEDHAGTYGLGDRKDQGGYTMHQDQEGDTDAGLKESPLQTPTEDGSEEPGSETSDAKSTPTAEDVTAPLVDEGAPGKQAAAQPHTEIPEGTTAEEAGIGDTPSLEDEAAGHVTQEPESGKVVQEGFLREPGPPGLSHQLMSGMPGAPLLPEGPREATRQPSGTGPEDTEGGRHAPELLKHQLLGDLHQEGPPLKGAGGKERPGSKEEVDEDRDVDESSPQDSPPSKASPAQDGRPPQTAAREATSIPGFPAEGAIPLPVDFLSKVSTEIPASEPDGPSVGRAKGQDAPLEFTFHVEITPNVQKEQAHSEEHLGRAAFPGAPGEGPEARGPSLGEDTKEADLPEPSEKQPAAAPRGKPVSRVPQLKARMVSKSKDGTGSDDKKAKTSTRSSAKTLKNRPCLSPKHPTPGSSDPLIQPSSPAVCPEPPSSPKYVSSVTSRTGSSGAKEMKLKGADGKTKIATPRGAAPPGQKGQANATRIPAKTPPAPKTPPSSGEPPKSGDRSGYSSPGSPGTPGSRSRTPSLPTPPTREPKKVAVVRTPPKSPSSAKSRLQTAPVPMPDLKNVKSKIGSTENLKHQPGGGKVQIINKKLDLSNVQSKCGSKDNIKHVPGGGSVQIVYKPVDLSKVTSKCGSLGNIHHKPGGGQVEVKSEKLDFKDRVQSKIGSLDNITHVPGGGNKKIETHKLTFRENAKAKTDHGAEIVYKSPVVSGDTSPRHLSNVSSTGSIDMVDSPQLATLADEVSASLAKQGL
In short: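 ThT emission at 510 nm, taken 1 hr after adding 30 uM dye, quantifies aggregates formed when 20 uM heparin acts on human tau K18 P301L for 6 hr at 37 C.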
In the case of CC(=O)Nc1ccc2nc(-c3ccc(Br)o3)[nH]c2c1, the Potency is reported as inconclusive: 22.4 µM [inhibitor, partial curve]. In the case of CCOc1ccc(/C=C/C(=O)c2ccccc2)cc1OC, the Potency is reported as inconclusive: 28.2 µM [inhibitor, single point]. For COc1ccc(Cl)cc1NC(=O)c1cc2c(=O)n3ccccc3nc2s1, the Potency was inconclusive: 11.2 µM [inhibitor, partial curve, poor fit]. For S=c1[nH]cnc2sc(Nc3ccccc3)nc12, the Potency was inconclusive: 22.4 µM [inhibitor, partial curve]. With COc1ccc(CNc2nc(-c3ccco3)nn2S(=O)(=O)c2ccc(Cl)cc2)cc1OC the Potency was “inactive”. In the case of CCOC(=O)/C(C#N)=C/c1ccc(SC)cc1, the Potency is reported as inconclusive: 22.4 µM [inhibitor, partial curve, poor fit]. For c1cc2c3c(cccc3c1)C(N1CCOCC1)=N2, the Potency was “inactive”. In the case of Cc1c(-c2ccccc2)oc2c(C(=O)OCC(=O)Nc3ccc(C(N)=O)cc3)cccc2c1=O, the Potency is reported as inconclusive: 3.55 µM [activator, single point]. With COc1ccc(CCNC(=O)c2ccc(Cl)c(S(=O)(=O)N(C)c3ccccc3)c2)cc1 the Potency was “inactive”. Cc1ccc(C(=O)NCC(c2ccc3c(c2)OCO3)N2CCOCC2)cc1C (configuration not stated) was tested, and the Potency was “inactive”. With CC(C)(C)c1ccc(-c2nc(C#N)c(NCCCn3ccnc3)o2)cc1 the Potency was inconclusive: 5.01 µM [inhibitor, full curve, poor fit]. O=C(Nc1ccc(Cl)cc1)Nc1ccccc1NS(=O)(=O)c1cccs1 was tested, and the Potency was inconclusive: 14.1 µM [inhibitor, partial curve]. With Cc1ccccc1NC(=O)/C(=C/c1ccccc1)c1ccccc1 the Potency was inconclusive: 39.8 µM [inhibitor, single point]. In the case of CO/N=C/c1ccc(N2CCN(C(=O)c3cccc(Cl)c3)CC2)c([N+](=O)[O-])c1, the Potency is reported as inconclusive: 14.1 µM [inhibitor, partial curve]. In the case of COc1cccc(CNC(=O)c2cnc3sc(N4CCCC4)nn3c2=O)c1OC, the Potency is reported as “inactive”. With CCOC(=O)COc1ccc(C2C(C(=O)OC)=C(C)NC3=C2C(=O)c2ccccc23)cc1Cl (configuration not stated) the Potency was inconclusive: 0.501 µM [inhibitor, full curve, poor fit]. For COc1ccc(Cn2c(CCC(=O)NCc3ccc(Cl)cc3)nc3cccnc32)cc1, the Potency was inconclusive: 25.1 µM [inhibitor, single point]. COc1cc2c(-c3cccc(Cl)c3)nc3c(c(C)nn3-c3ccccc3)c2cc1OC was tested, and the Potency was “inactive”. With Cc1occc1C(=O)N1CCCc2ccccc21 the Potency was inconclusive: 2.82 µM [inhibitor, full curve, poor fit]. For COc1ccc(-c2cn(-c3ccc(C)cc3)c(=O)n2CC(=O)Nc2ccc(OC)cc2OC)cc1, the Potency was inconclusive: 28.2 µM [inhibitor, partial curve, poor fit]. In the case of CCCCCCCC(=O)NNC(=O)Cc1ccccc1, the Potency is reported as “inactive”. For CCC(CNc1cc(OC)cc2cccnc12)NC1CCCCC1 (configuration not stated), the Potency was inconclusive: 17.8 µM [inhibitor, partial curve, poor fit]. For COc1ccc(NC(=O)Cn2c(SCc3ccc(C)cc3)nc3cccnc32)cc1OC, the Potency was inconclusive: 25.1 µM [activator, single point]. With COc1ccc(NC(=O)c2sc3nc4c(cc3c2N)CN(Cc2ccccc2)CC4)c(OC)c1 the Potency was inconclusive: 3.98 µM [inhibitor, partial curve]. CC(C)C(=O)NC(=S)Nc1ccc(S(=O)(=O)Nc2ccccc2)cc1 was tested, and the Potency was “inactive”. O=[N+]([O-])c1ccc(/C=N/n2c(COc3ccccc3)n[nH]c2=S)cc1 was tested, and the Potency was inconclusive: 14.1 µM [inhibitor, partial curve]. In the case of Cc1ccc(/C=N/N2CCN(c3ccccc3)CC2)cc1, the Potency is reported as inconclusive: 5.01 µM [inhibitor, partial curve]. With CN=c1scc(-c2ccc([N+](=O)[O-])cc2)n1/N=C/c1ccco1 the Potency was active: 3.55 µM. O=C1Nc2ccccc2Oc2cc(Oc3ccccc3)ccc21 was tested, and the Potency was inconclusive: 17.8 µM [inhibitor, partial curve, poor fit]. For O=[N+]([O-])c1cc(S(=O)(=O)Nc2ccccc2)ccc1N1CCN(c2ccccc2)CC1, the Potency was inconclusive: 10 µM [inhibitor, partial curve]. For CC(=O)Nc1ccc(S(=O)(=O)N2CCN(C(C)CCc3ccccc3)CC2)cc1 (configuration not stated), the Potency was “inactive”. With C=CCSC1=N/C(=C\c2cccnc2)C(=O)N1c1ccc(OC)cc1 the Potency was inconclusive: 14.1 µM [inhibitor, partial curve]. With COC(=O)c1c(NC(=O)CCCOc2cccc(C)c2)sc2c1CCC2 the Potency was inconclusive: 10 µM [inhibitor, partial curve]. In the case of Cc1cc(O)c(C(c2cccc(F)c2)N2CCN(c3ccccc3)CC2)c(=O)n1Cc1ccco1 (configuration not stated), the Potency is reported as inconclusive: 8.91 µM [inhibitor, partial curve]. CC(=O)Nc1ccc(N2N=C(C)C(N=Nc3ccccc3)C2=O)cc1 (configuration not stated) was tested, and the Potency was active: 4.47 µM. In the case of CN(c1ccccc1)S(=O)(=O)c1ccc(NC(=O)c2nc(S(C)(=O)=O)ncc2Cl)cc1, the Potency is reported as inconclusive: 7.94 µM [inhibitor, partial curve]. For CCOC(=O)c1cc2c(s1)-c1c(C)cccc1OC2, the Potency was inconclusive: 20 µM [inhibitor, partial curve]. CCOC(=O)Cc1csc(NC(=O)CSc2nnc(-c3ccc(C)cc3)o2)n1 was tested, and the Potency was inconclusive: 2.82 µM [inhibitor, full curve, poor fit]. For O=C(N/N=C/c1cc([N+](=O)[O-])ccc1O)NC12CC3CC(CC(C3)C1)C2, the Potency was inconclusive: 15.8 µM [inhibitor, partial curve, poor fit]. In the case of O=C(Oc1coc(CSc2nnc(NC(=O)C3CC3)s2)cc1=O)c1ccccc1, the Potency is reported as inconclusive: 14.1 µM [inhibitor, partial curve]. For Cc1cc2c(NC(=O)Nc3ccccc3)cccc2nn1, the Potency was inconclusive: 20 µM [inhibitor, partial curve, poor fit]. With Cc1ccc(N2CCN(C(=O)N3CCOCC3)CC2)cc1C the Potency was inconclusive: 10 µM [inhibitor, partial curve].
